± gives the standard deviation. Only a part is listed here, and it is no random draw.
System: MIWI (PIWIL1) piRISC loaded with piRNA #1 (30 nt)
Test: pre-steady-state target cleavage rate (min^-1); MIWI and MILI are mouse PIWI proteins and EfPiwi is from a freshwater sponge; tags in brackets are library labels; higher = faster piRNA-guided slicing of the target
Settings: guide: piRNA #1 5'p-UGAGGUAGUAGGUUGUAUAGUAUCCAGAGG; auxiliary factor: 500 nM mouse GTSF1
Outline: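 The pre-steady-state cleavage rate came from a burst-and-steady-state fit to pooled data from three Cleave-'n-Seq trials, in which uncleaved targets were sequenced and normalised to depth and to weakly complementary targets. Each reaction held 0.1 nM transcribed, DNA-blocked target RNA library and 1 nM active affinity-purified piRISC carrying one synthetic guide, with or without 500 nM GTSF1 partner protein, in HEPES–potassium acetate buffer at 33 °C for 0–8 or 0–960 min. k3 was capped at 0.0001 min^-1.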

Sequence | pre-steady-state target cleavage rate
GCCUCUGGAUACUAUACAACCUACUACCUCA | 1.89 ± 0.12
GCUGUGGAUACUAUUCAACCUACUACCUCA | 1.74 ± 0.12
GGAGACCUAUCUAUACAACCUACUACCUGCA | 0.853 ± 0.073
GGAGACCUAUGUAUACAACCUACUACCUUA | 0.227 ± 0.032
GGAGACCAAACUAUACAACCUACUACGUCA | 0.597 ± 0.058
GGAGUCGAUACUAUACAACCUACUACCACA | 0.957 ± 0.066
GGAGACGUUACUAAACAACCUACUACCUCA | 1.1 ± 0.095
CCUGUGGAUACUAUACAACCUACUACCACA | 0.357 ± 0.055
GCUAUGGAUACUAUACAACCUACUACCUCA | 1.93 ± 0.092
GGACUGGAUACUAUUCAACCUACUACGUCA | 0.389 ± 0.054
GGAGACCUAUGAUAUGUUCCUACUACACUCA | < 0.0001
GCUCUGGAAACUAUACAACCUACAACCUCA | 0.901 ± 0.099
GGAGUGGAUACUAUACAACUUACUACCUCA | 0.525 ± 0.021
GGAGACCUAACUAUUGAACCUACUACCUCA | 0.00633 ± 0.0026
GGAGACCUAACUAUACCACCUACUACCUCA | 0.351 ± 0.041
GGAGACGAUACUAUACAACCUACUAGCUCA | 0.528 ± 0.055
GGAGACCAUACUAUUCAACCAACUACCUCA | 0.0721 ± 0.0085
GGAGACGAUACUAUACAACCUACUACCUGA | 0.74 ± 0.087
GCUCUGGAUACUAUACAACCUACUACCUGCA | 1.43 ± 0.11
GGUCUGGAUACUAUACAAGCUACUAGCUCA | 0.13 ± 0.032
CCUCUGGAUACUAUACAUCCUACUACGUCA | 0.921 ± 0.063
GCUCUGGAUACUGUACAACCUACUACCUCA | 0.583 ± 0.053
GCUCUGGAUUCUAUACAACCUACUACCUGA | 0.509 ± 0.071
GGAGACCUUACUAUACAACCUACUACUUCA | 1.58 ± 0.12
